Measured values as given in the supplement of paper PMC3334620.
Over roughly 33,000 sequences, “E-score (-0.5 to 0.5)” has its median near -0.035; the highest 2% begin near 0.34. Some of the results follow.

Each sequence was assayed against T1, Mot3 (UniProt P54785) (assay: PBM E-score (8-mer binding enrichment) (E-score (-0.5 to 0.5)); higher = stronger / more preferred TF binding; most listed sequences are background and not binding sites). Conditions: protein concentration: 200 nM; construct: GST-full length.
T1 sequence: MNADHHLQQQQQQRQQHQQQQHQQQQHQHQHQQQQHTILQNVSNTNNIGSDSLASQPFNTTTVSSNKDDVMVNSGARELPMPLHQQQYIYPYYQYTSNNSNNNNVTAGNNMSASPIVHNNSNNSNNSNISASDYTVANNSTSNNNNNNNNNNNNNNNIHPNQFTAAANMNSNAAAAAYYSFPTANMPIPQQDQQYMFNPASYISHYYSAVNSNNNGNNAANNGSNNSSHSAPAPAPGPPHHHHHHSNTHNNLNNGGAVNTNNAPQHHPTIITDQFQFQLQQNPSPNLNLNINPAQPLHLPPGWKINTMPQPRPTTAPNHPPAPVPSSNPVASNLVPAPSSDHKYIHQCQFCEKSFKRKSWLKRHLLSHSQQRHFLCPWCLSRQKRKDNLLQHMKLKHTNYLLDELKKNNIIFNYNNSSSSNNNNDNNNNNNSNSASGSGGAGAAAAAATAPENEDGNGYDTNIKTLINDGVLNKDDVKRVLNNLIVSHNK
Experimental: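 Universal 'all 10-mer' protein binding microarrays (Agilent AMADID 015681) probed with GST-tagged S. cerevisiae TFs (full-length or DBD) made by in vitro transcription/translation (PURExpress), about 100-200 nM. Bound TF was detected with fluorescent anti-GST. Each ungapped 8-mer (which stands for itself and its reverse complement) is scored by the PBM enrichment score (E-score), a modified Wilcoxon-Mann-Whitney statistic from -0.5 to +0.5, computed with the Universal PBM Analysis Suite. Scale: above 0.35 generally sequence-specific binding.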

| Sequence | PBM E-score |
| --- | --- |
| ACTTATGG | -0.197 |
| CCATTGAG | -0.266 |
| GCTGGGTA | -0.189 |
| TACTGTCA | -0.12 |
| AGGATTCA | -0.0361 |
| ACCCCCCT | -0.22 |
| CAACAATA | 0.223 |
| CGCCTAAC | 0.152 |
| CTACCGAA | -0.147 |
| CTCCAAGA | -0.156 |
| CTGGAGTC | -0.231 |
| CGGCGCAG | -0.16 |
| ACCCTCAT | -0.211 |
| AGTACCAC | -0.0545 |
| CCGGTTAG | -0.0697 |
| GCTAGTGA | -0.136 |
| GCCGATAC | -0.157 |
| CGAAATGC | -0.0411 |
| CACGCATC | 0.0401 |
| ATACTCCG | -0.189 |
| AACGAGTG | 0.115 |
| TAACAGGA | 0.269 |
| ACGCAAGT | 0.139 |
| AGTTAGTC | -0.15 |
| GTGCGACA | -0.148 |

| Sequence | PBM E-score |
| --- | --- |
| AGGAATGA | 0.0383 |
| CACTTCCG | -0.114 |
| CGCGGGAC | -0.247 |
| CATGGCAC | 0.0198 |
| CGTATCGA | 0.069 |
| CGTGGGCA | -0.152 |
| CGTGAGAA | -0.0654 |
| AACATTGA | 0.165 |
| CCACTCGA | -0.0827 |
| ACCCTCGT | 0.0213 |
| ACTTCCCG | -0.128 |
| GGCTAGTA | 0.0473 |
| AGTTAGGA | 0.108 |
| CTTTCCAC | -0.177 |
| ACGTATAC | 0.17 |
| AATTGCGC | 0.0861 |
| CATGGTAA | 0.17 |
| AACGGTTG | 0.072 |
| ACTCCACA | 0.0701 |
| ATTCGGGC | -0.093 |
| CTACTCAC | 0.0243 |
| AAAGTGAA | 0.0712 |
| TCCCTAAA | -0.0605 |
| GAGTATAA | 0.154 |
| AGACGGAA | -0.247 |

| Sequence | PBM E-score |
| --- | --- |
| ACGAATTA | 0.179 |
| CGTTTTAA | 0.194 |
| ACCAAAGG | 0.00751 |
| CCCTGGTC | -0.315 |
| CCCAATGC | -0.165 |
| ACCTGAAT | 0.198 |
| GCGCGGAC | 0.00829 |
| GTAATTTA | 0.298 |
| CGGATGGC | -0.204 |
| ACATTTTA | 0.212 |
| GCGTTCGA | 0.0844 |
| CTAACTCA | -0.0373 |
| ATCGAACA | -0.0411 |
| CTAGATTC | -0.0736 |
| CGGGCGGC | -0.243 |
| GGCGCAAA | -0.0904 |
| AGCCCAAA | -0.00593 |
| CCCGCCAA | -0.243 |
| GCCAGAGC | -0.314 |
| CGTGGGTC | -0.178 |
| AGAGGGAC | -0.159 |
| ATGTTTCC | 0.211 |
| CGAAGCGA | -0.297 |
| AAACTCAA | 0.0815 |
| ACAGCAGT | -0.0677 |

| Sequence | PBM E-score |
| --- | --- |
| CCTGGTGA | -0.21 |
| AAGTGACT | -0.208 |
| AACCCGAC | -0.0189 |
| CAATCTCC | -0.225 |
| ATTATCTC | 0.0147 |
| CAGTAGAG | -0.0196 |
| CTGGCAAG | 0.0662 |
| AGCTTATG | -0.002 |
| ATTGTTAC | 0.256 |
| TAAGGAAA | 0.424 |
| CGGTTCGA | -0.147 |
| AGAGCCGG | -0.145 |
| AGCTCGCG | -0.124 |
| ACGCCGAG | -0.205 |
| AGGACGCG | -0.141 |
| CACGACCG | -0.0329 |
| GAGTCGGA | -0.259 |
| GGTGCAAC | -0.19 |
| ACGTCTGC | -0.201 |
| ACAAGTTA | 0.131 |
| AAAAGACG | 0.017 |
| GAAAGCCC | -0.229 |
| GCTCATAC | -0.0906 |
| ATGAAGAA | 0.0946 |
| CCTTAAAA | 0.158 |

| Sequence | PBM E-score |
| --- | --- |
| ATCCATAG | -0.206 |
| CCAGTATA | -0.178 |
| ATCAAGCA | -0.0875 |
| TATGACGA | -0.135 |
| CTGCGGTC | -0.0645 |
| AGTCTATG | -0.109 |
| CCGATTCC | -0.15 |
| CCATCGGG | -0.234 |
| AGGTGCAG | -0.0615 |
| AGTTGTGC | 0.0959 |
| GGCTGGTA | -0.258 |
| GATCCACC | -0.19 |
| AACGTGGT | 0.161 |
| AGAGCCCA | -0.0746 |
| GAATTCTC | -0.17 |
| ATACTGGC | -0.208 |
| CCATTGCG | -0.214 |
| CCCTATGA | -0.141 |
| TCATTGGA | 0.0601 |
| CTCATTAA | 0.0946 |
| ATGCGGTG | -0.17 |
| CCTTGAAA | 0.107 |
| GAACCATA | -0.0833 |
| TGAGACAA | -0.0961 |
| AAGGCACT | 0.486 |

| Sequence | PBM E-score |
| --- | --- |
| TGAGTACA | 0.153 |
| ATAAGCAA | 0.0348 |
| CTCCCTGC | -0.379 |
| ATTGCACG | 0.252 |
| ACACCTCG | -0.0776 |
| GAGGACGA | -0.167 |
| GCAGGAAA | 0.451 |
| TGATGAAA | 0.179 |
| CTCTCTCC | -0.221 |
| GTGCGAGA | 0.021 |
| CGGTCGAG | -0.0964 |
| CGAAGAAC | 0.119 |
| AGTCTCTA | -0.102 |
| AATTAGTA | 0.196 |
| CCGGTAGC | -0.28 |
| CTCAGTTA | -0.059 |
| AATGTATA | 0.214 |
| GCATGGAA | -0.0627 |
| CAGCGTTC | 0.0493 |
| AGAAACCT | 0.0434 |
| ACACCGAA | -0.0055 |
| AGCGTCTA | -0.142 |
| GTCCGTCA | -0.0583 |
| ACTGGACA | -0.193 |
| GACCGAGC | -0.227 |

| Sequence | PBM E-score |
| --- | --- |
| ACTACTCT | 0.0207 |
| ACGTGACA | 0.18 |
| ACTCAATA | 0.0994 |
| GAATCGAA | 0.122 |
| CATGTACG | 0.239 |
| CAGTCAGC | -0.00114 |
| CTTCAAAA | 0.031 |
| AAAATGGA | 0.119 |
| AATAGGAC | 0.0837 |
| AATCGTAC | 0.0321 |
| ATAGTATA | 0.0519 |
| GCAATAAC | 0.0995 |
| GACCGACA | -0.125 |
| GCTTTATA | -0.0653 |
| AGTGTCAC | -0.136 |
| AACACTAT | 0.146 |
| GGATGACC | -0.282 |
| AGAGTAAG | 0.0887 |
| CCGTGCAA | 0.125 |
| ATGAAACA | 0.137 |
| TACAACTA | 0.0111 |
| AGCAGCAC | -0.117 |
| GACCAGCC | -0.26 |
| CTGTCGTC | -0.202 |
| AGGGGTCG | 0.0904 |

| Sequence | PBM E-score |
| --- | --- |
| CTGCTGAA | 0.0926 |
| ACAGAAAG | 0.0448 |
| CTCAAAGA | 0.0629 |
| ATATGCAT | -0.0664 |
| AGCACATG | 0.182 |
| CAGGTCCC | -0.0883 |
| GTATAGTA | 0.00756 |
| AGAGTGTC | -0.123 |
| ACGGCTAA | -0.125 |
| GCAGTCGA | -0.116 |
| TAACTTAA | 0.194 |
| CGCGCCCA | -0.275 |
| TATCAACA | 0.284 |
| GGCGGTGA | -0.0878 |
| ACCTTTAC | 0.226 |
| GAAATAAC | 0.167 |
| CACGAGTG | 0.0755 |
| AACAGTGC | 0.0841 |
| CTTAATAA | 0.0282 |
| GAGACAAA | -0.105 |
| ACCGGACG | 0.0928 |
| CGTATTGA | 0.0966 |
| AAGAATGC | -0.117 |
| ACCCTCCG | -0.245 |
| CTGGTAGC | -0.0556 |

| Sequence | PBM E-score |
| --- | --- |
| CATAGTCG | 3e-05 |
| ATATGGAA | -0.226 |
| CGTCAAAA | 0.163 |
| GTGGTAAC | 0.166 |
| AGCGCTTG | -0.185 |
| GAATATAC | 0.0313 |
| CGATTGGA | -0.127 |
| GTCGTCAA | -0.0783 |
| ATGAAGTA | -0.0752 |
| AGTTCAGC | -0.141 |
| CCTCACAA | 0.087 |
| AATCTCGT | -0.0741 |
| TAAAAATA | 0.276 |
| AACAACAG | 0.24 |
| CAAGGACA | 0.0403 |
| AATCGACG | -0.053 |
| ATATCTTG | 0.0756 |
| ACTATAAA | 0.0694 |
| GGGCACTA | 0.0732 |
